# According to the supplement of paper PMC7826260:
# Some of the results follow. Each Rep nickase domain was tested in vitro on the same pool of single strands (1 h at 37 °C, 3 µM enzyme); the outer parts of the 90-letter strands are left off. Uncut reads are compared with the no-enzyme pool on a log2 scale; uncut sequences lie near 0, cut ones below; no hit call is given. Shares of all reads are compared, so uncut sequences can rise above 0 when many others are cut.
# Assays:
# Test in all cases: uncleaved DNA left, log2 of reads against the no-enzyme library (log2 ratio); higher = less cleavage (more negative = more Rep cleavage of the k-mer); sequences stand for … in CTCGTCCG…ACCGGAGA
# [1] = system: T1, Rep nickase domain of Muscovy duck circovirus
# T1 sequence (protein, residues 1-111, tag omitted): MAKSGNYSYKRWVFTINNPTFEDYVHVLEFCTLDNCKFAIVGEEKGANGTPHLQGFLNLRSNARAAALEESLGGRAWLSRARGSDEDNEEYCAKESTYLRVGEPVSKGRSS
# Protocol: (§1)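 A pool of 90-nt single-stranded DNAs with seven random bases just before the constant AC of the nick site (name = the seven bases) was cut by 3 µM recombinant His6-SUMO-tagged Rep nickase domain (300 nM DNA, 50 mM HEPES pH 8.0, 50 mM NaCl, 1 mM MnCl2, 1 h, 37 °C, three replicates). Uncut DNA was amplified and sequenced.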
# [2] = system: T2, Rep nickase domain of banana bunchy top virus
# T2 sequence (protein, residues 1-94, tag omitted): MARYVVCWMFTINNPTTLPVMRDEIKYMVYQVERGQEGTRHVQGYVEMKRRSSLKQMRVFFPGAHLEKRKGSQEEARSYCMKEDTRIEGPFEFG
# Protocol: as §1
# [3] = system: T3, Rep nickase domain of cabbage leaf curl virus
# T3 sequence (protein, residues 1-116, tag omitted): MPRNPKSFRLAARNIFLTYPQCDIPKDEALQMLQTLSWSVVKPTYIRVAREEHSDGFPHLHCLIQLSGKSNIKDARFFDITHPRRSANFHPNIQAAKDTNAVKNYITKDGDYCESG
# Protocol: as §1
# [4] = system: T4, Rep nickase domain of chickpea chlorotic dwarf virus
# T4 sequence (protein, residues 1-124, tag omitted): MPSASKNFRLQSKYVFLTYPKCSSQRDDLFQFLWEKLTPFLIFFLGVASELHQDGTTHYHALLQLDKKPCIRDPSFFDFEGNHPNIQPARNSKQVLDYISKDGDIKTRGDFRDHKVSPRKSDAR
# Protocol: as §1
# [5] = system: T5, Rep nickase domain of faba bean necrotic yellows virus
# T5 sequence (protein, residues 1-98, tag omitted): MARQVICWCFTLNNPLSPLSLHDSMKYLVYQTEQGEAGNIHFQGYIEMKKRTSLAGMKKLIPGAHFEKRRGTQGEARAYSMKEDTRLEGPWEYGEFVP
# Protocol: as §1
# [6] = system: T6, Rep nickase domain of maize striate mosaic virus
# T6 sequence (protein, residues 1-117, tag omitted): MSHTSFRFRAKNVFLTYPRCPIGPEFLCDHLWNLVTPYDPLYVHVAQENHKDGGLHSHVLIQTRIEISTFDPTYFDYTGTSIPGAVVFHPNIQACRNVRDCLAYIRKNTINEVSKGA
# Protocol: as §1
# [7] = system: T7, Rep nickase domain of porcine circovirus 2
# T7 sequence (protein, residues 2-116, tag omitted): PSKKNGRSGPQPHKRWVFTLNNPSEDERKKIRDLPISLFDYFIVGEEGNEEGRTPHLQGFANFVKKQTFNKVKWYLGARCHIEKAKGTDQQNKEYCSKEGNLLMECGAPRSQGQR
# Protocol: as §1
# [8] = system: T8, Rep nickase domain of tomato golden mosaic virus
# T8 sequence (protein, residues 1-124, tag omitted): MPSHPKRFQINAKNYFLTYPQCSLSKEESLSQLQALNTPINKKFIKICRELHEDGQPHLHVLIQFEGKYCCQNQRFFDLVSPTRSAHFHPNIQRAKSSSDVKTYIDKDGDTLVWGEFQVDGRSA
# Protocol: as §1
# [9] = system: T9, Rep nickase domain of tomato yellow leaf curl virus
# T9 sequence (protein, residues 1-136, tag omitted): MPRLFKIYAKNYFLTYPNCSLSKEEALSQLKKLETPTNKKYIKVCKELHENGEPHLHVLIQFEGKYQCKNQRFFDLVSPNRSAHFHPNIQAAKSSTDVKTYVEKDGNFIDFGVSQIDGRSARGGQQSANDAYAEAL
# Protocol: as §1
# [10] = system: T10, Rep nickase domain of wheat dwarf virus
# T10 sequence (protein, residues 1-137, tag omitted): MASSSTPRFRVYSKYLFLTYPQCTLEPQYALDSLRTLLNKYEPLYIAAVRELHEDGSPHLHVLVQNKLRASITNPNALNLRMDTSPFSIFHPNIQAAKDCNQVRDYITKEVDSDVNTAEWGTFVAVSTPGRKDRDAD
# Protocol: as §1
sequence,measurement,setting,value
AACCGCT,uncleaved DNA left (log2),[1],-0.0428
same,uncleaved DNA left (log2),[2],-0.0603
same,uncleaved DNA left (log2),[3],-0.451
same,uncleaved DNA left (log2),[4],-1.71
same,uncleaved DNA left (log2),[5],-0.0251
same,uncleaved DNA left (log2),[6],-0.908
same,uncleaved DNA left (log2),[7],-0.937
same,uncleaved DNA left (log2),[8],-0.00458
same,uncleaved DNA left (log2),[9],-0.101
same,uncleaved DNA left (log2),[10],-0.127
AGGTGTA,uncleaved DNA left (log2),[1],-0.0469
same,uncleaved DNA left (log2),[2],-0.0406
same,uncleaved DNA left (log2),[3],0.158
same,uncleaved DNA left (log2),[4],0.17
same,uncleaved DNA left (log2),[5],0.015
same,uncleaved DNA left (log2),[6],0.963
same,uncleaved DNA left (log2),[7],-0.168
same,uncleaved DNA left (log2),[8],0.0852
same,uncleaved DNA left (log2),[9],-0.0534
same,uncleaved DNA left (log2),[10],0.000503
ACATAAC,uncleaved DNA left (log2),[1],-0.0539
same,uncleaved DNA left (log2),[2],-0.0801
same,uncleaved DNA left (log2),[3],-0.623
same,uncleaved DNA left (log2),[4],-1.41
same,uncleaved DNA left (log2),[5],-0.000751
same,uncleaved DNA left (log2),[6],-1.07
same,uncleaved DNA left (log2),[7],0.0727
same,uncleaved DNA left (log2),[8],0.0639
same,uncleaved DNA left (log2),[9],-0.14
same,uncleaved DNA left (log2),[10],-0.0789
TTACGCA,uncleaved DNA left (log2),[1],0.0611
same,uncleaved DNA left (log2),[2],-0.0307
same,uncleaved DNA left (log2),[3],-0.149
same,uncleaved DNA left (log2),[4],-1.26
same,uncleaved DNA left (log2),[5],0.0879
same,uncleaved DNA left (log2),[6],-0.678
same,uncleaved DNA left (log2),[7],-0.0477
same,uncleaved DNA left (log2),[8],-0.143
same,uncleaved DNA left (log2),[9],0.0466
same,uncleaved DNA left (log2),[10],0.0343
TATAAAG,uncleaved DNA left (log2),[1],0.103
same,uncleaved DNA left (log2),[2],0.000929
same,uncleaved DNA left (log2),[3],-0.78
same,uncleaved DNA left (log2),[4],-0.921
same,uncleaved DNA left (log2),[5],0.17
same,uncleaved DNA left (log2),[6],-1.15
same,uncleaved DNA left (log2),[7],0.129
same,uncleaved DNA left (log2),[8],0.00723
same,uncleaved DNA left (log2),[9],0.000657
same,uncleaved DNA left (log2),[10],0.011
ACAGCAT,uncleaved DNA left (log2),[1],0.0176
same,uncleaved DNA left (log2),[2],0.00238
same,uncleaved DNA left (log2),[3],-0.4
same,uncleaved DNA left (log2),[4],-0.665
same,uncleaved DNA left (log2),[5],-0.0841
same,uncleaved DNA left (log2),[6],-0.759
same,uncleaved DNA left (log2),[7],0.0814
same,uncleaved DNA left (log2),[8],-0.184
same,uncleaved DNA left (log2),[9],0.0364
same,uncleaved DNA left (log2),[10],-0.142
CACATGC,uncleaved DNA left (log2),[1],-0.11
same,uncleaved DNA left (log2),[2],-0.0453
same,uncleaved DNA left (log2),[3],-0.788
same,uncleaved DNA left (log2),[4],-0.418
same,uncleaved DNA left (log2),[5],-0.124
same,uncleaved DNA left (log2),[6],-1.3
same,uncleaved DNA left (log2),[7],-0.0141
same,uncleaved DNA left (log2),[8],-0.166
same,uncleaved DNA left (log2),[9],-0.00434
same,uncleaved DNA left (log2),[10],-0.188
TTTGAAA,uncleaved DNA left (log2),[1],-0.0013
same,uncleaved DNA left (log2),[2],-0.0338
same,uncleaved DNA left (log2),[3],0.268
same,uncleaved DNA left (log2),[4],0.273
same,uncleaved DNA left (log2),[5],-0.00726
same,uncleaved DNA left (log2),[6],0.115
same,uncleaved DNA left (log2),[7],0.0095
same,uncleaved DNA left (log2),[8],-0.00198
same,uncleaved DNA left (log2),[9],0.0557
same,uncleaved DNA left (log2),[10],-0.0282
TCGATCA,uncleaved DNA left (log2),[1],0.0268
same,uncleaved DNA left (log2),[2],-0.00324
same,uncleaved DNA left (log2),[3],0.332
same,uncleaved DNA left (log2),[4],-0.194
same,uncleaved DNA left (log2),[5],0.00749
same,uncleaved DNA left (log2),[6],0.372
same,uncleaved DNA left (log2),[7],-0.0644
same,uncleaved DNA left (log2),[8],0.0549
same,uncleaved DNA left (log2),[9],0.0736
same,uncleaved DNA left (log2),[10],0.041
GAACTTA,uncleaved DNA left (log2),[1],-0.083
same,uncleaved DNA left (log2),[2],0.023
same,uncleaved DNA left (log2),[3],0.225
same,uncleaved DNA left (log2),[4],-0.467
same,uncleaved DNA left (log2),[5],-0.179
same,uncleaved DNA left (log2),[6],0.948
same,uncleaved DNA left (log2),[7],-0.029
same,uncleaved DNA left (log2),[8],-0.12
same,uncleaved DNA left (log2),[9],-0.0065
same,uncleaved DNA left (log2),[10],0.0146
GTGAGTC,uncleaved DNA left (log2),[1],0.0683
same,uncleaved DNA left (log2),[2],0.072
same,uncleaved DNA left (log2),[3],0.328
same,uncleaved DNA left (log2),[4],0.805
same,uncleaved DNA left (log2),[5],-0.016
same,uncleaved DNA left (log2),[6],1.73
same,uncleaved DNA left (log2),[7],0.162
same,uncleaved DNA left (log2),[8],0.0663
same,uncleaved DNA left (log2),[9],0.0201
same,uncleaved DNA left (log2),[10],0.00389
AGACTAA,uncleaved DNA left (log2),[1],0.0746
same,uncleaved DNA left (log2),[2],0.0885
same,uncleaved DNA left (log2),[3],0.575
same,uncleaved DNA left (log2),[4],1.14
same,uncleaved DNA left (log2),[5],-0.00052
same,uncleaved DNA left (log2),[6],1.45
same,uncleaved DNA left (log2),[7],0.137
same,uncleaved DNA left (log2),[8],0.0513
same,uncleaved DNA left (log2),[9],0.137
same,uncleaved DNA left (log2),[10],0.113
TTTCCAC,uncleaved DNA left (log2),[1],0.0395
same,uncleaved DNA left (log2),[2],0.0241
same,uncleaved DNA left (log2),[3],0.143
same,uncleaved DNA left (log2),[4],-0.106
same,uncleaved DNA left (log2),[5],-0.0127
same,uncleaved DNA left (log2),[6],-0.107
same,uncleaved DNA left (log2),[7],-0.323
same,uncleaved DNA left (log2),[8],-0.0659
same,uncleaved DNA left (log2),[9],0.0753
same,uncleaved DNA left (log2),[10],0.0996
CCACCAC,uncleaved DNA left (log2),[1],-0.195
same,uncleaved DNA left (log2),[2],0.0413
same,uncleaved DNA left (log2),[3],-0.066
same,uncleaved DNA left (log2),[4],-0.909
same,uncleaved DNA left (log2),[5],-0.149
same,uncleaved DNA left (log2),[6],-0.678
same,uncleaved DNA left (log2),[7],-0.101
same,uncleaved DNA left (log2),[8],-0.134
same,uncleaved DNA left (log2),[9],-0.0539
same,uncleaved DNA left (log2),[10],-0.0314
GGTCTAA,uncleaved DNA left (log2),[1],0.0662
same,uncleaved DNA left (log2),[2],0.101
same,uncleaved DNA left (log2),[3],0.395
same,uncleaved DNA left (log2),[4],1.13
same,uncleaved DNA left (log2),[5],-0.00626
same,uncleaved DNA left (log2),[6],1.77
same,uncleaved DNA left (log2),[7],0.116
same,uncleaved DNA left (log2),[8],0.0635
same,uncleaved DNA left (log2),[9],0.0645
same,uncleaved DNA left (log2),[10],0.19
